Results from the supplement of paper PMC7125110.
± gives the standard error. Variants at the floor of the assay are shown more often than the library holds them.

B1: glmS ribozyme (parent)
chain: AUAAAAGCGCCAGAACUACAGAAAUGUAGUUGACGAGGAGGAGGUUUAUCGAAUUUUCGGCGGAUGCCUCCAAA

Legend:
Conditions in all cases: with glucosamine-6-phosphate
glucosamine-6-phosphate [1] = variants of: B1; assay: self-cleavage kobs at 640 uM GlcN6P; higher = faster cleavage; RNA array
Summary of the method: (§1)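 Over ~14 h at 37 °C, tiles were imaged as glucosamine-6-phosphate (40 μM to 10 mM) in HEPES/KCl/Mg(OAc)2 buffer flowed across sequenced MiSeq chips. The chips carried barcoded ribozyme variants transcribed in situ by E. coli RNA polymerase and tracked with a hybridised Cy3 probe. After normalisation to baseline and to non-cleaving reference variants, one- or two-exponential decay fits of per-tile medians gave kobs. kcat and KM followed from weighted Michaelis–Menten fits across concentrations.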

glucosamine-6-phosphate [2] = variants of: B1; assay: self-cleavage kobs at 2500 uM GlcN6P; higher = faster cleavage; RNA array
Summary of the method: as §1

glucosamine-6-phosphate [3] = variants of: B1; assay: self-cleavage kobs at 160 uM GlcN6P; higher = faster cleavage; RNA array
Summary of the method: as §1

glucosamine-6-phosphate [4] = variants of: B1; assay: self-cleavage kobs at 40 uM GlcN6P; higher = faster cleavage; RNA array
Summary of the method: as §1

glucosamine-6-phosphate [5] = variants of: B1; assay: self-cleavage kobs at 10000 uM GlcN6P; higher = faster cleavage; RNA array
Summary of the method: as §1

Row | Variant | self-cleavage kobs at 640 uM GlcN6P (glucosamine-6-phosphate [1]) | self-cleavage kobs at 2500 uM GlcN6P (glucosamine-6-phosphate [2]) | self-cleavage kobs at 160 uM GlcN6P (glucosamine-6-phosphate [3]) | self-cleavage kobs at 40 uM GlcN6P (glucosamine-6-phosphate [4]) | self-cleavage kobs at 10000 uM GlcN6P (glucosamine-6-phosphate [5])
1 | C8U G63U U65C | < 1e-05 s⁻¹ |  |  |  | 
2 | C8A G13A C61U G62C C70A | < 1e-05 s⁻¹ | < 1e-05 s⁻¹ |  |  | 
3 | A6U C10U G32C | < 1e-05 s⁻¹ |  |  |  | 
4 | A6G G35A U56G G66A | < 1e-05 s⁻¹ | < 1e-05 s⁻¹ | < 1e-05 s⁻¹ |  | 
5 | G9U A42G U55A | < 1e-05 s⁻¹ | < 1e-05 s⁻¹ |  |  | 
6 | C8U A14C A15C | < 1e-05 s⁻¹ |  |  |  | 
7 | G63C C68U |  |  |  | < 1e-05 s⁻¹ | < 1e-05 s⁻¹
8 | U57A C71U |  |  |  | < 1e-05 s⁻¹ | 
9 | G43U A52C C61A C71U | < 1e-05 s⁻¹ |  |  | < 1e-05 s⁻¹ | < 1e-05 s⁻¹
10 | C8G U56G C68G | < 1e-05 s⁻¹ |  |  |  | 
11 | G7C G41C G51C | < 1e-05 s⁻¹ |  |  |  | 
12 | G9A C10A G13C G29C | < 1e-05 s⁻¹ | < 1e-05 s⁻¹ |  |  | 
13 | C61U G63U | < 1e-05 s⁻¹ |  | < 1e-05 s⁻¹ | < 1e-05 s⁻¹ | 
14 | A6G A14U A33U G43A C50G | < 1e-05 s⁻¹ |  |  |  | 
15 | U57G G62A |  |  |  | < 1e-05 s⁻¹ | 
16 | U54G G62C | < 1e-05 s⁻¹ | < 1e-05 s⁻¹ | < 1e-05 s⁻¹ | < 1e-05 s⁻¹ | 

Row | Variant | self-cleavage kobs at 640 uM GlcN6P (glucosamine-6-phosphate [1]) | self-cleavage kobs at 2500 uM GlcN6P (glucosamine-6-phosphate [2]) | self-cleavage kobs at 160 uM GlcN6P (glucosamine-6-phosphate [3]) | self-cleavage kobs at 40 uM GlcN6P (glucosamine-6-phosphate [4]) | self-cleavage kobs at 10000 uM GlcN6P (glucosamine-6-phosphate [5])
17 | A42U C67A | 0.00067 ± 9.7e-05 s⁻¹ | 0.00183 ± 0.00029 s⁻¹ | 0.000151 ± 3.4e-05 s⁻¹ | 7.75e-05 ± 9.8e-06 s⁻¹ | 0.00183 ± 0.00019 s⁻¹
18 | G44U C61U | < 1e-05 s⁻¹ |  | < 1e-05 s⁻¹ | < 1e-05 s⁻¹ | < 1e-05 s⁻¹
19 | A42U G43U G60U |  |  |  | < 1e-05 s⁻¹ | 
20 | C8A G32C A48C | < 1e-05 s⁻¹ | < 1e-05 s⁻¹ |  |  | 
21 | G7C G13U A33U A39G G41A A48C A64C | < 1e-05 s⁻¹ |  |  |  | 
22 | C8G C11G G43A | < 1e-05 s⁻¹ | < 1e-05 s⁻¹ | < 1e-05 s⁻¹ |  | 
23 | G51C U65C | < 1e-05 s⁻¹ |  |  | < 1e-05 s⁻¹ | 
24 | G7A A48U A53U U65A | < 1e-05 s⁻¹ |  | < 1e-05 s⁻¹ |  | 
25 | C8U A12U G51U | < 1e-05 s⁻¹ | < 1e-05 s⁻¹ |  |  | 
26 | A53C C58U |  |  | < 1e-05 s⁻¹ | < 1e-05 s⁻¹ | 
27 | A6C G41C U46C | < 1e-05 s⁻¹ |  |  |  | 
28 | U54C C68A |  |  |  | < 1e-05 s⁻¹ | 
29 | A42C U49G G59U |  |  |  | < 1e-05 s⁻¹ | < 1e-05 s⁻¹
30 | G51U C71A |  |  |  | < 1e-05 s⁻¹ | 
31 | A6G G63C | < 1e-05 s⁻¹ | < 1e-05 s⁻¹ | < 1e-05 s⁻¹ |  | < 1e-05 s⁻¹
